Data on 31 compounds can be found in patent US8648074B2, “Substituted octahydropyrrolo[1,2-a]pyrazine sulfonamides as calcium channel blockers” (AbbVie Inc., priority 2011, dated 2014).

The target of this assay is human Cav2.2 (Homo sapiens, UniProt Q00975). The assay is described as follows: In vitro assessment of calcium channel activity using FLIPR (Ca2+ influx in IMR32 cells). It is filed as cell-based. Particulars: IMR32 cells endogenously expressing human Cav2.2; Calcium 4 dye, 60 minute pre-incubation, 2 μM nifedipine, depolarized with 80 mM KCl; average of at least two runs unless marked *.
With `O=S(=O)(c1ccc(OC(F)F)cc1)N1CCN2C[C@H](Oc3cnc(C4CC4)cn3)C[C@H]2C1` [Example 29, (7R,8aS)-7-[(5-cyclopropylpyrazin-2-yl)oxy]-2-{[4-(difluoromethoxy)-phenyl]sulfonyl}octahydropyrrolo[1,2-a]pyrazine], the IC50 stood at 1460 nM.
With `O=C1C(Cc2cccc(C(F)(F)F)c2)C[C@H]2CN(S(=O)(=O)c3ccc(C(F)(F)F)cc3)CCN12` (stereo partly drawn) [Example 224, (8aS)-7-[3-(trifluoromethyl)benzyl]-2-{[4-(trifluoromethyl)phenyl]-sulfonyl}hexahydropyrrolo[1,2-a]pyrazin-6(2H)-one], the IC50 amounted to 353 nM.
As for `O=S(=O)(c1ccc(Cl)nc1)N1CCN2C[C@H](Oc3cnc(C4CC4)cn3)C[C@H]2C1` [Example 75, (7R,8aS)-2-[(6-chloropyridin-3-yl)sulfonyl]-7-[(5-cyclopropylpyrazin-2-yl)-oxy]octahydropyrrolo[1,2-a]pyrazine], the IC50 stood at 19400 nM.
Take `CCn1cc(S(=O)(=O)N2CCN3C[C@H](Oc4cnc(C5CC5)cn4)C[C@H]3C2)cn1` [Example 165, (7R,8aS)-7-[(5-cyclopropylpyrazin-2-yl)oxy]-2-[(1-ethyl-1H-pyrazol-4-yl)-sulfonyl]octahydropyrrolo[1,2-a]pyrazine]: the IC50 worked out at 16400 nM.
As to `Cc1ccc(S(=O)(=O)N2CCN3C[C@H](Oc4cnc(C5CC5)cn4)C[C@H]3C2)cc1F` [Example 125, (7R,8aS)-7-[(5-cyclopropylpyrazin-2-yl)oxy]-2-[(3-fluoro-4-methylphenyl)-sulfonyl]octahydropyrrolo[1,2-a]pyrazine], the IC50 was found to be 1510 nM.
Then `O=S(=O)(c1cccc(C(F)(F)F)c1)N1CCN2C[C@@H](Oc3cnc(C4CC4)cn3)C[C@H]2C1` [Example 49, (7S,8aS)-7-[(5-cyclopropylpyrazin-2-yl)oxy]-2-{[3-(trifluoromethyl)-phenyl]sulfonyl}octahydropyrrolo[1,2-a]pyrazine], with 280 nM; and `O=S(=O)(c1cncc(C2CC2)c1)N1CCN2C[C@H](Oc3cnc(C4CC4)cn3)C[C@H]2C1` [Example 74, (7R,8aS)-7-[(5-cyclopropylpyrazin-2-yl)oxy]-2-[(5-cyclopropylpyridin-3-yl)sulfonyl]octahydropyrrolo[1,2-a]pyrazine], with 4530 nM.
For the compound `Cc1ccc(C(C)(C)C)cc1S(=O)(=O)N1CCN2C[C@H](Oc3cnc(C4CC4)cn3)C[C@H]2C1` [Example 168, (7R,8aS)-2-[(5-tert-butyl-2-methylphenyl)sulfonyl]-7-[(5-cyclopropylpyrazin-2-yl)oxy]octahydropyrrolo[1,2-a]pyrazine], the IC50 stood at 740 nM.
As to `CC(C)c1cnc(O[C@@H]2C[C@H]3CN(S(=O)(=O)c4cccc(C(F)(F)F)n4)CCN3C2)cn1` [Example 205, (7R,8aS)-7-[(5-isopropylpyrazin-2-yl)oxy]-2-{[6-(trifluoromethyl)pyridin-2-yl]sulfonyl}octahydropyrrolo[1,2-a]pyrazine], the IC50 is 280 nM.
In the case of `O=S(=O)(c1ccc(C(F)(F)F)cc1)N1CCN2C[C@H](Oc3ccc(C(F)(F)F)nc3)C[C@H]2C1` [Example 228, (7R,8aS)-2-{[4-(trifluoromethyl)phenyl]sulfonyl}-7-{[6-(trifluoromethyl)-pyridin-3-yl]oxy}octahydropyrrolo[1,2-a]pyrazine], the IC50 was 654 nM.
Consider `O=S(=O)(c1cccc(C(F)(F)F)c1)N1CCN2C[C@H](Oc3ncc(Br)s3)C[C@H]2C1` [Example 93, (7R,8aS)-7-[(5-bromo-1,3-thiazol-2-yl)oxy]-2-{[3-(trifluoromethyl)-phenyl]sulfonyl}octahydropyrrolo[1,2-a]pyrazine], for which the IC50 worked out at 1570 nM.
As to “2-chloro-5-{[(7R,8aS)-7-[(5-cyclopropylpyrazin-2-yl)oxy]hexahydropyrrolo[1,2-a]pyrazin-2(1H)-yl]sulfonyl}benzonitrile [Example 68]”, the IC50 was found to be 1040 nM.
Then `N#Cc1cccc(S(=O)(=O)N2CCN3C(=O)C(Cc4cccc(C(F)(F)F)c4)C[C@H]3C2)c1` (stereo partly drawn) [Example 225, 3-{[(8aS)-6-oxo-7-[3-(trifluoromethyl)benzyl]hexahydropyrrolo[1,2-a]-pyrazin-2(1H)-yl]sulfonyl}benzonitrile], with 625 nM; and `O=S(=O)(c1cccc(C(F)(F)F)c1)N1CCN2C[C@H](OCc3ccc(C(F)(F)F)cc3)C[C@H]2C1` [Example 99, (7R,8aS)-7-{[4-(trifluoromethyl)benzyl]oxy}-2-{[3-(trifluoromethyl)-phenyl]sulfonyl}octahydropyrrolo[1,2-a]pyrazine], with 1140 nM.
As to `CC(C)(C)c1ccc(CO[C@@H]2C[C@H]3CN(S(=O)(=O)c4cccc(C(F)(F)F)c4)CCN3C2)cc1` [Example 97, (7R,8aS)-7-[(4-tert-butylbenzyl)oxy]-2-{[3-(trifluoromethyl)phenyl]-sulfonyl}octahydropyrrolo[1,2-a]pyrazine], the IC50 was 1850 nM.
For the compound `O=S(=O)(c1c(F)cccc1F)N1CCN2C[C@H](Oc3cnc(C4CC4)cn3)C[C@H]2C1` [Example 122, (7R,8aS)-7-[(5-cyclopropylpyrazin-2-yl)oxy]-2-[(2,6-difluorophenyl)-sulfonyl]octahydropyrrolo[1,2-a]pyrazine], the IC50 is 3140 nM.
With `COc1cccc(S(=O)(=O)N2CCN3C[C@H](Oc4cnc(C5CC5)cn4)C[C@H]3C2)c1` [Example 105, (7R,8aS)-7-[(5-cyclopropylpyrazin-2-yl)oxy]-2-[(3-methoxyphenyl)sulfonyl]-octahydropyrrolo[1,2-a]pyrazine], the IC50 was determined as 3990 nM.
On to `O=S(=O)(c1cc(Cl)sc1Cl)N1CCN2C[C@H](Oc3cnc(C4CC4)cn3)C[C@H]2C1` [Example 140, (7R,8aS)-7-[(5-cyclopropylpyrazin-2-yl)oxy]-2-[(2,5-dichloro-3-thienyl)-sulfonyl]octahydropyrrolo[1,2-a]pyrazine], for which the IC50 was greater than 30000 nM.
`Cc1nc2ccc(O[C@H]3C[C@H]4CN(S(=O)(=O)c5cccc(C(F)(F)F)c5)CCN4C3)cc2o1` [Example 78, 2-methyl-6-{[(7S,8aS)-2-{[3-(trifluoromethyl)phenyl]sulfonyl}octahydropyrrolo[1,2-a]pyrazin-7-yl]oxy}-1,3-benzoxazole]: the IC50 was 1310 nM.
On to `Cc1ccc(F)cc1S(=O)(=O)N1CCN2C[C@H](Oc3cnc(C4CC4)cn3)C[C@H]2C1` [Example 139, (7R,8aS)-7-[(5-cyclopropylpyrazin-2-yl)oxy]-2-[(5-fluoro-2-methylphenyl)-sulfonyl]octahydropyrrolo[1,2-a]pyrazine], for which the IC50 was found to be 1320 nM.
Turning to `O=S(=O)(c1cccc(C(F)(F)F)c1)N1CCN2C[C@H](Oc3cccc(C4CC4)n3)C[C@H]2C1` [Example 92, (7R,8aS)-7-[(6-cyclopropylpyridin-2-yl)oxy]-2-{[3-(trifluoromethyl)-phenyl]sulfonyl}octahydropyrrolo[1,2-a]pyrazine], the IC50 was found to be 2380 nM.
Under `O=S(=O)(c1cncc(Br)c1)N1CCN2C[C@H](Oc3cnc(C4CC4)cn3)C[C@H]2C1` [Example 73, (7R,8aS)-2-[(5-bromopyridin-3-yl)sulfonyl]-7-[(5-cyclopropylpyrazin-2-yl)-oxy]octahydropyrrolo[1,2-a]pyrazine] stands 4680 nM; under `O=S(=O)(c1cccc(OC(F)F)c1)N1CCN2C[C@H](Oc3cnc(C4CC4)cn3)C[C@H]2C1` [Example 30, (7R,8aS)-7-[(5-cyclopropylpyrazin-2-yl)oxy]-2-{[3-(difluoromethoxy)-phenyl]sulfonyl}octahydropyrrolo[1,2-a]pyrazine], 750 nM.
On to `CC(C)c1cnc(O[C@@H]2C[C@H]3CN(S(=O)(=O)c4ccc(C(F)(F)F)cc4)CCN3C2)cn1` [Example 162, (7R,8aS)-7-[(5-isopropylpyrazin-2-yl)oxy]-2-{[4-(trifluoromethyl)-phenyl]sulfonyl}octahydropyrrolo[1,2-a]pyrazine], for which the IC50 was 1290 nM.
Under `O=S(=O)(c1cccc(C(F)(F)F)c1)N1CCN2C[C@H](Oc3cccc(C(F)(F)F)n3)C[C@H]2C1` [Example 230, (7R,8aS)-2-{[3-(trifluoromethyl)phenyl]sulfonyl}-7-{[6-(trifluoromethyl)-pyridin-2-yl]oxy}octahydropyrrolo[1,2-a]pyrazine] stands 629 nM; under `O=C(N[C@H]1C[C@H]2CN(S(=O)(=O)c3ccccc3C(F)(F)F)CCN2C1)c1ccc(Cl)cc1` [Example 9, 4-chloro-N-[(7S,8aS)-2-{[2-(trifluoromethyl)phenyl]sulfonyl}octahydropyrrolo[1,2-a]pyrazin-7-yl]benzamide], 5120 nM; under `CC(C)(C)c1ccc(O[C@H]2C[C@H]3CN(S(=O)(=O)c4cccc(C(F)(F)F)c4)CCN3C2)cc1` [Example 42, (7S,8aS)-7-(4-tert-butylphenoxy)-2-{[3-(trifluoromethyl)phenyl]-sulfonyl}octahydropyrrolo[1,2-a]pyrazine], 1210 nM.
`O=S(=O)(c1ccc(C(F)(F)F)cc1)N1CCN2C[C@H](Oc3ccc(C(F)(F)F)cn3)C[C@H]2C1` [Example 226, (7R,8aS)-2-{[4-(trifluoromethyl)phenyl]sulfonyl}-7-{[5-(trifluoromethyl)-pyridin-2-yl]oxy}octahydropyrrolo[1,2-a]pyrazine]: the IC50 worked out at 2280 nM.
As to `Cc1ccc(S(=O)(=O)N2CCN3C[C@H](Oc4cnc(C5CC5)cn4)C[C@H]3C2)cc1C(F)(F)F` [Example 180, (7R,8aS)-7-[(5-cyclopropylpyrazin-2-yl)oxy]-2-{[4-methyl-3-(trifluoromethyl)phenyl]sulfonyl}octahydropyrrolo[1,2-a]pyrazine], the IC50 was found to be 500 nM.
Then `O=S(=O)(c1ccc(F)c(C(F)(F)F)c1)N1CCN2C[C@H](Oc3cnc(C4CC4)cn3)C[C@H]2C1` [Example 52, (7R,8aS)-7-[(5-cyclopropylpyrazin-2-yl)oxy]-2-{[4-fluoro-3-(trifluoromethyl)phenyl]sulfonyl}octahydropyrrolo[1,2-a]pyrazine], with 510 nM; and `O=S(=O)(Cc1cccc(C(F)(F)F)c1)N1CCN2C[C@H](Oc3cnc(C4CC4)cn3)C[C@H]2C1` [Example 218, (7R,8aS)-7-[(5-cyclopropylpyrazin-2-yl)oxy]-2-{[3-(trifluoromethyl)-benzyl]sulfonyl}octahydropyrrolo[1,2-a]pyrazine], with 16000 nM.
